Data published in PMC12136788.
This is one part of the list.

T1: UNK ZnF1-3 (human, UniProt Q9C0B0 31-174)
T1 sequence: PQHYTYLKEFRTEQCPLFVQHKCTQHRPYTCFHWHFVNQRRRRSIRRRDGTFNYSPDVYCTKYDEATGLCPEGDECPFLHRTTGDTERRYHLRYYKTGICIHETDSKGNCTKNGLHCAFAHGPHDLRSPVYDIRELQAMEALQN

B1: chr22:32879901:32879902:+_ENSG00000100225_ENST00000397426|hu_mus|hu_hu_hu_mus_False|28_38 (ssRNA)
RNA: GGGAGUUCUACAGUCCGACGAUCCUCUUCCAUACUCAUGGCAUCCUGAAUUGACUCAGCUUCAACAUUUUGACUAGGCCCUUCCAUACUGUCAUCAUUCCAAACACCAGACUGGGCGGCCUGUCCUUGGGAUGAAUCAGUCCCCAACAGAGGAUUGAGCAUCA
B2: chr9:107755404:107755405:-_ENSMUSG00000032582_ENSMUST00000035201|mus_mus|FALSE|FALSE (ssRNA)
RNA: GGGAGUUCUACAGUCCGACGAUCCUCUAUAAUCCAUAGGAGUACCAUCUCCACCCCUGUAGUCCAUAGGUGGUCCUUCUCUAUCCCGAAAAUCCCCAGAAUGUAUGUCCCUGUUCCUGAAGUCCAACUGUGCUGAAUCUCUACCAACAGAGGAUUGAGCAUCA
B3: 120571260_120571380_2981_CDS_ENSMUSG00000090100_ENSMUST00000028740|mouse|control|control (ssRNA)
RNA: GGGAGUUCUACAGUCCGACGAUCCUCUGAGACACAAUGAUAGAGCUCUCCAUUUCUAGGGACAACUUUCUCUCUCUUACCCUCUUGGUGCAAAAAAGCAGAGAGGUCUCCCUGCUGCCUUGGCAAGCUUUCACUCUGAAUACCCAACAGAGGAUUGAGCAUCA
B4: chr1:109605286:109605287:-_ENSG00000197780_ENST00000461096|hu_mus|hu_hu_hu_mus_True|68_78 (ssRNA)
RNA: GGGAGUUCUACAGUCCGACGAUCAAGUUUCAGAGUAACAUUCAGUAACCUCUUUAACAAUUGUAAUCCUUACUUUAAGCUAAGCAGAAUAAUAAUUUAAUACCGUAAGUGAACUACACACAAAGCCUGAACCGCGAAAAUGGUCAACAGAGGAUUGAGCAUCA
B5: 83833361_83836788_2724_CDS_ENSMUSG00000034940_ENSMUST00000092834|mouse|control|control (ssRNA)
RNA: GGGAGUUCUACAGUCCGACGAUCAAGGCUCAAGCUCCUCUUGUGUGAUCCUUGAACAGAAAGGUCAAAGGUUGCCAGCUCACUUUUGAUCAUUUCUUCACUGGAUUUCAUUUUGCUCUGGGAAUUAGCUACUAAGAAGUCAAACAACAGAGGAUUGAGCAUCA
B6: chr10:57943292:57943293:+_ENSMUSG00000003226_ENSMUST00000003310|mus_mus|motif|central (ssRNA)
RNA: GGGAGUUCUACAGUCCGACGAUCCAAAGAACCAGUGGCUGAACUGUUGCCAAAUGCAAAUGGCUUGGAUUUUUCACGGCGGAAAAUGCUUUUAACAGAUUCUGAGCCAAAUACAAACUUAGGAGGAGAAACUACUGCUUUUGGCAACAGAGGAUUGAGCAUCA
B7: chr7:151048522:151048523:+_ENSG00000013374_ENST00000566856|hu_mus|hu_hu_hu_mus_True|58_68 (ssRNA)
RNA: GGGAGUUCUACAGUCCGACGAUCCUGUUUCUUAUUUAUUACGAUCUUGAUGUAAUUUUCUUGAAAUCCAAAGGUUUCAGCUAUUUUACACCUCAGGUCUCUACCAGUGACAUGCAAGCGGGUCUCCAACAAGCUUUUCUUAUCCAACAGAGGAUUGAGCAUCA
B8: 31147569_31147689_162_5pUTR_ENSMUSG00000036957_ENSMUST00000046351|mouse|control|control (ssRNA)
RNA: GGGAGUUCUACAGUCCGACGAUCAAAUAUUGGGAUCCAUGCUCCAAAAUAAUGGGGUUCGGCUUCCAAAUCUUGGGGUCCCAGAGACGGAUGUCGGGAUUCCAGCCCCAGAUAUUGAGGUUCAAGGUCCGAGUCUUAGGGUUCCAACAGAGGAUUGAGCAUCA
B9: chr8:74858975:74858976:-_ENSG00000154582_ENST00000284811|hu_mus|hu_hu_hu_mus_True|48_88 (ssRNA)
RNA: GGGAGUUCUACAGUCCGACGAUCGACCUUGUAGGUAAAAUACAUGCAUACUUUCGAUAGCACAUGUGAGGGGAUCUCUCUAAAAUUGACCUCAUUGGUUUCAUUCUCAGCAAACUGACCUGGACCACUCAACAUAGCCUUUAUCAACAGAGGAUUGAGCAUCA
B10: 4711491_4711611_344_5pUTR_ENSMUSG00000067889_ENSMUST00000008991|mouse|control|control (ssRNA)
RNA: GGGAGUUCUACAGUCCGACGAUCCCUUUUCAAAGGUCCCUUUUGGGGCACCUCCAGGCCAUCUCGCUUAAGCGUUUCUCUCUGCCUUGCCCCCUUUCUCUCGUCCUCCUUCUGGCAGGUAGGCUGGCCCGCUUUCCAAAAGCACAACAGAGGAUUGAGCAUCA
B11: chr7:141445308:141445309:+_ENSG00000106028_ENST00000265304|hu_hu|hu_hu_hu_mus_False|38_58 (ssRNA)
RNA: GGGAGUUCUACAGUCCGACGAUCUAUGAUUGUUGUUGCUUGCCGCCUCACAUUGUUUUUAUCCAUGUACUCGCCAUAGUCUAUUUUCCCUUCCACAUAAAUUCGAGCCCCCUUUUUCACAUACUGAUAUGCCACAUCUCUGAGCAACAGAGGAUUGAGCAUCA
B12: 120740698_120742171_2696_CDS_ENSMUSG00000027272_ENSMUST00000028728|mouse|control|control (ssRNA)
RNA: GGGAGUUCUACAGUCCGACGAUCCAGGUUGACUACUUUGCUGAAAGCAGGGCAGAACUCCGGAGGAGGUGGCGGCGGCAAUGCUUCAUCUUUAUUUUCUUGUUUUCUCCUUUUCUUCUGCAUAUGUUCAGCCUUGCUAUGCUGCAACAGAGGAUUGAGCAUCA
B13: chr7:107556079:107556080:+_ENSG00000091140_ENST00000440410|hu_hu|FALSE|FALSE (ssRNA)
RNA: GGGAGUUCUACAGUCCGACGAUCAUCAAUUUUUCCAUCUGACUUCUUGGUAGCACCAGUAACCUUUGUAUUCAAUUUAAAUUUAAACCCCUGUUUUUGAAGGAUGCGUUGAAAGUUUUUAGAUAUCUCCAUAUCAAUUCCAACCAACAGAGGAUUGAGCAUCA
B14: 170108172_170108863_2360_3pUTR_ENSG00000136603_ENST00000458537|human|control|control (ssRNA)
RNA: GGGAGUUCUACAGUCCGACGAUCGUUCCUUCAUAGAUUUUGAACUACUCAACAUUUUUACUUCCAUCUGAAGUUGUUGCUUCUUUUGCAAAAUCAAGUUUAGUUUUUCCUGUUGUUUUAAAUAAGUUCUCAUUACUUCUUCCACAACAGAGGAUUGAGCAUCA
B15: chr3:148802587:148802588:-_ENSG00000071794_ENST00000310053|hu_mus|hu_hu_hu_mus_False|48_108 (ssRNA)
RNA: GGGAGUUCUACAGUCCGACGAUCUCCAACCACAUGACCUCUCAUAGUUCCAAAUAAAACCAAAUCUUGCUCUUCAUCACUCGUUAGAAAGUCAUCUGGAGGAAUAAUGUCUUGGAAUUCAAAAUGUGGCAAGAAAGUUGAGUACAACAGAGGAUUGAGCAUCA
B16: chr4:104905227:104905228:+_ENSMUSG00000028517_ENSMUST00000064139|mus_hu|motif|central (ssRNA)
RNA: GGGAGUUCUACAGUCCGACGAUCACAAAAUGGAACCUUACAAAAAUACUGACAAUUUAAUGUUUUUAUACAGUUUUCUCGGGUUGCAGUUAUUUCAUUAUAAAACAAUGUCUACCACAGAACUAUGAUAUUUUAGUUGAUAUUCAACAGAGGAUUGAGCAUCA
B17: chr11:86518203:86518204:-_ENSMUSG00000047126_ENSMUST00000103186|perfect_dup|motif|central (ssRNA)
RNA: GGGAGUUCUACAGUCCGACGAUCGAACAGCUCCAGGUGCUCCCUCAUUUUCUGAGGCUUAAAUUUAGAGUAUAGAAUAGCGGAUUCAGUAAACAUUCCCAUGUGAGCUCGCUCAAGUCCCAGUGCUGCUUCCAACAUGGUGAUCAACAGAGGAUUGAGCAUCA
B18: chr16:94690422:94690423:+_ENSMUSG00000040785_ENSMUST00000117648|mus_hu|motif|central (ssRNA)
RNA: GGGAGUUCUACAGUCCGACGAUCUGUGACCAGAAUUCAUGGUUCUAUAUUUACCACUGUCUAAAAGUCACAAAACAAUAUCGGAUUUUUUCAUGGUUUCUAAUGCAGUUACAGUUUUGUUCUUAGGUCACAGUACAAGACUGCCAACAGAGGAUUGAGCAUCA
B19: chr1:38489359:38489360:+_ENSG00000183520_ENST00000537711|hu_hu|motif|central (ssRNA)
RNA: GGGAGUUCUACAGUCCGACGAUCUAGUUAUGGUUACAAACCGGAAAACCAUGCCAUUUGGAGUAAUGGAAUUUGAAGUUACGGGAAAACGACAACAGAUUUUUGAUACAGAAUGACAAGGCUUAUCUAUAACACGUCAACGUUCAACAGAGGAUUGAGCAUCA
B20: 37437324_37437444_4351_3pUTR_ENSMUSG00000026915_ENSMUST00000028279|mouse|control|control (ssRNA)
RNA: GGGAGUUCUACAGUCCGACGAUCUAAGUGGAAUUUUCAUUACAAAAUGAAGGGUGGGACGGGCAAAAGGUGGGAGGACACUUAAUUCAUUACAGAAUUUAAACAAUUGAACUUGCAUGGUUACCACUUCUAACAUAGGGUCAACAACAGAGGAUUGAGCAUCA
B21: 80378380_80380382_1460_CDS_ENSMUSG00000027002_ENSMUST00000028386|mouse|control|control (ssRNA)
RNA: GGGAGUUCUACAGUCCGACGAUCCUCAGCAAUGUGCUUAUCUAUAAAGUCAUCUGCACUCUUCUUUGGCAUGUUGUCCGCGUGACGGAGCAGCCAGAUAAUUUCAUCACGGGCAAAAGAUAACGCCAUGAAAACAAAAAGUGCCAACAGAGGAUUGAGCAUCA
B22: chr7:91631701:91631702:+_ENSG00000127914_ENST00000356239|hu_hu|motif|central (ssRNA)
RNA: GGGAGUUCUACAGUCCGACGAUCUUCAUUUAGCUGAAUACAUUGUUGUUUGAGGUCCUCAUUUUCCUCUAUAAGUAUUUCGGUUUCUUUUUCCCACACAGAGUCUUUGGAUUUGGACUUAAUGGAGUCUAAGAAAAUCAAUCUCAACAGAGGAUUGAGCAUCA

target: T1, UNK ZnF1-3; assay: nsRBNS (natural sequence RNA bind-n-seq); RBNS binding buffer (assumed for nsRBNS): 25 mM Tris pH 7.5, 150 mM KCl, 3 mM MgCl2, 0.01% Triton X-100, 500 ug/ml BSA, 20 U/ml SUPERase-In, 4 C; UNK is unkempt and MSI1 is Musashi-1; names of the RNAs are library labels; protein concentration not given here; high values mean tight binding

Binder | binding signal [enrichment R]
B1 | 1.05
B2 | 0.897
B3 | 0.897
B4 | 0.896
B5 | 0.791
B6 | 2.2
B7 | 0.569
B8 | 0.968
B9 | 0.946
B10 | 0.76
B11 | 0.538
B12 | 0.54
B13 | 1.32
B14 | 0.312
B15 | 1.38
B16 | 0.884
B17 | 0.775
B18 | 0.223
B19 | 1.28
B20 | 1.74
B21 | 1.2
B22 | 0.446
